# Test results: the supplement of paper PMC9174493
# The other results are listed elsewhere or left out. Single values of this set are uncertain. Values with irradiation are relative to irradiated vehicle.
# Test system: A549-Dual
# Assay: ISRE reporter (Lucia luciferase) activity, viability-corrected, relative to vehicle (fold change vs vehicle); higher = more activation of STING-IRF / NF-kB immune response reporter
# Details: 0.3 µM; irradiation: none
row,SMILES,ISRE reporter
1,CC(=O)Oc1cccc2c1C(=O)c1c(OC(C)=O)cc(C(=O)O)cc1C2=O [Diacerein],0.606
2,CNCC(O)c1ccc(O)c(O)c1.O=C(O)C(O)C(O)C(=O)O (configuration not stated) [Epinephrine bitartrate],1.31
3,CC1(C(=O)O)CCC2(C)CCC3(C)C(=CC(=O)C4C5(C)CCC(OC6OC(C(=O)O)C(O)C(O)C6OC6OC(C(=O)O)C(O)C(O)C6O)C(C)(C)C5CCC43C)C2C1.N.N (configuration not stated) [Diammonium Glycyrrhizinate],1.06
4,CCCCCCCCCCCCCCCCCCOP(=O)([O-])OC1CC[N+](C)(C)CC1 [Perifosine (KRX-0401)],1.1
5,COc1c2occc2cc2ccc(=O)oc12 [Methoxsalen],0.872
6,O=C(O)CCCN1CCC(OC(c2ccc(Cl)cc2)c2ccccn2)CC1 (configuration not stated) [Bepotastine],1.19
7,CN(C)CCCOc1nn(Cc2ccccc2)c2ccccc12.Cl [Benzydamine HCl],0.632
8,CC(C(=O)O)c1ccc2c(c1)[nH]c1ccc(Cl)cc12 (configuration not stated) [Carprofen],0.815
9,COc1cc2nccc(Oc3ccc(NC(=O)Nc4cc(C)on4)c(Cl)c3)c2cc1OC [Tivozanib (AV-951)],0.734
10,Oc1ccc(/C=C/c2cc(O)cc(O)c2)cc1 [Resveratrol],0.959
11,Nc1cccc2c1C(=O)N(C1CCC(=O)NC1=O)C2=O (configuration not stated) [Pomalidomide],0.927
12,COc1cc(C2c3cc4c(cc3C(OC3OC5COC(c6cccs6)OC5C(O)C3O)C3COC(=O)C23)OCO4)cc(OC)c1O (configuration not stated) [Teniposide],2.6
13,S=c1nc[nH]c2nc[nH]c12 [Mercaptopurine (6-MP)],0.813
14,CC(C(=O)O)c1ccc2c(c1)CC(=O)c1ccccc1S2 (configuration not stated) [Zaltoprofen],1.04
15,Cc1nc(Nc2ncc(C(=O)Nc3c(C)cccc3Cl)s2)cc(N2CCN(CCO)CC2)n1.Cl [Dasatinib hydrochloride],0.472
16,"O=c1[nH]cc(F)c(=O)[nH]1 [Fluorouracil (5-Fluoracil, 5-FU)]",1.11
17,COc1cc(/C=C/C(=O)/C=C(O)/C=C/c2ccc(O)c(OC)c2)ccc1O [Curcumin],1.08

# Same assay, conditions: 1 µM; irradiation: 8 Gy/4 fr
row,SMILES,ISRE reporter
1,CC1=C(CC(=O)O)c2cc(F)ccc2/C1=C\c1ccc(S(C)=O)cc1 (configuration not stated) [Sulindac],0.849
2,C1N2CN3CN1CN(C2)C3 [Methenamine],0.942
3,COc1ccc2cc(C(C)C(=O)[O-])ccc2c1.[Na+] (configuration not stated) [Naproxen Sodium],0.81
4,Cc1ccc(Cl)c(Nc2ccccc2C(=O)[O][Na])c1Cl [Meclofenamate Sodium],1.04
5,O=C(OCCOCCO)c1ccccc1Nc1cccc(C(F)(F)F)c1 [Etofenamate],0.721
6,O=C([O-])c1cc(N=Nc2ccc(O)c(C(=O)[O-])c2)ccc1O.[Na+].[Na+] [Olsalazine Sodium],0.731
7,CC(=O)Nc1ccc(OC(=O)c2ccccc2OC(C)=O)cc1 [Benorylate],0.761
8,CO/N=C(\C(=O)NC1C(=O)N2C(C(=O)OCOC(=O)C(C)(C)C)=C(C)CSC12)c1csc(N)n1.Cl (configuration not stated) [Cefetamet pivoxil hydrochloride],0.794
9,CCC(C(=O)O)c1ccc(N2Cc3ccccc3C2=O)cc1 (configuration not stated) [Indobufen],0.864
10,CS(=O)(=O)O.Cc1ccc(NC(=O)c2ccc(CN3CCN(C)CC3)cc2)cc1Nc1nccc(-c2cccnc2)n1 [Imatinib Mesylate (STI571)],0.803
11,CC(C(=O)O)c1ccc(C(=O)c2ccccc2)s1 (configuration not stated) [Tiaprofenic acid],1.43
12,CCc1nc(N)nc(N)c1-c1ccc(Cl)cc1 [Pyrimethamine],1.15
13,COc1cc(C2c3cc4c(cc3C(OC3OC5COC(C)OC5C(O)C3O)C3COC(=O)C23)OCO4)cc(OC)c1O (configuration not stated) [Etoposide],0.663
14,CN(C)CCC(c1ccc(Br)cc1)c1ccccn1.O=C(O)/C=C\C(=O)O (configuration not stated) [Brompheniramine hydrogen maleate],0.972
15,CC12CCC3c4ccc(O)cc4CC(CCCCCCCCCS(=O)CCCC(F)(F)C(F)(F)F)C3C1CCC2O (configuration not stated) [Fulvestrant],0.798
16,O=C([O-])CC(O)(CC(=O)[O-])C(=O)[O-].O=C([O-])CC(O)(CC(=O)[O-])C(=O)[O-].[BiH6+3].[K+].[K+].[K+] [Gastrodenol],0.974
17,CCCCC1(COC(=O)CCC(=O)O)C(=O)N(c2ccccc2)N(c2ccccc2)C1=O [Suxibuzone],0.97
18,O=C(O)Cc1ccccc1Nc1c(Cl)cccc1Cl.OCCN1CCCC1 [Diclofenac Epolamine],0.628
19,Cl.N=C1CCCN1Cc1[nH]c(=O)[nH]c(=O)c1Cl.O=c1[nH]c(=O)n(C2CC(O)C(CO)O2)cc1C(F)(F)F.O=c1[nH]c(=O)n(C2CC(O)C(CO)O2)cc1C(F)(F)F (configuration not stated),0.64
20,NC(CO)(CO)CO [Trometamol],0.938

row,SMILES,ISRE reporter
1,COc1ccc2c(c1)c(CC(=O)O)c(C)n2C(=O)c1ccc(Cl)cc1 [Indomethacin],1.02
2,Cn1cnc([N+](=O)[O-])c1Sc1ncnc2nc[nH]c12 [Azathioprine],0.928
3,NCCNc1ccc(NCCN)c2c1C(=O)c1ccncc1C2=O.O=C(O)/C=C\C(=O)O.O=C(O)/C=C\C(=O)O [Pixantrone Maleate],0.579
4,CC(=O)Oc1cccc2c1C(=O)c1c(OC(C)=O)cc(C(=O)O)cc1C2=O [Diacerein],0.747
5,CNCC(O)c1ccc(O)c(O)c1.O=C(O)C(O)C(O)C(=O)O (configuration not stated) [Epinephrine bitartrate],1.04
6,CC1(C(=O)O)CCC2(C)CCC3(C)C(=CC(=O)C4C5(C)CCC(OC6OC(C(=O)O)C(O)C(O)C6OC6OC(C(=O)O)C(O)C(O)C6O)C(C)(C)C5CCC43C)C2C1.N.N (configuration not stated) [Diammonium Glycyrrhizinate],0.836
7,CCCCCCCCCCCCCCCCCCOP(=O)([O-])OC1CC[N+](C)(C)CC1 [Perifosine (KRX-0401)],0.861
8,COc1c2occc2cc2ccc(=O)oc12 [Methoxsalen],0.842
9,O=C(O)CCCN1CCC(OC(c2ccc(Cl)cc2)c2ccccn2)CC1 (configuration not stated) [Bepotastine],1.18
10,CN(C)CCCOc1nn(Cc2ccccc2)c2ccccc12.Cl [Benzydamine HCl],0.758
11,CC(C(=O)O)c1ccc2c(c1)[nH]c1ccc(Cl)cc12 (configuration not stated) [Carprofen],0.726
12,COc1cc2nccc(Oc3ccc(NC(=O)Nc4cc(C)on4)c(Cl)c3)c2cc1OC [Tivozanib (AV-951)],0.521
13,Oc1ccc(/C=C/c2cc(O)cc(O)c2)cc1 [Resveratrol],0.891
14,Nc1cccc2c1C(=O)N(C1CCC(=O)NC1=O)C2=O (configuration not stated) [Pomalidomide],0.943
15,COc1cc(C2c3cc4c(cc3C(OC3OC5COC(c6cccs6)OC5C(O)C3O)C3COC(=O)C23)OCO4)cc(OC)c1O (configuration not stated) [Teniposide],0.421
16,S=c1nc[nH]c2nc[nH]c12 [Mercaptopurine (6-MP)],0.735
17,CC(C(=O)O)c1ccc2c(c1)CC(=O)c1ccccc1S2 (configuration not stated) [Zaltoprofen],0.832
18,Cc1nc(Nc2ncc(C(=O)Nc3c(C)cccc3Cl)s2)cc(N2CCN(CCO)CC2)n1.Cl [Dasatinib hydrochloride],0.176
19,"O=c1[nH]cc(F)c(=O)[nH]1 [Fluorouracil (5-Fluoracil, 5-FU)]",1.01
20,COc1cc(/C=C/C(=O)/C=C(O)/C=C/c2ccc(O)c(OC)c2)ccc1O [Curcumin],0.809
